Experimental data published in PMC4336329 (PLoS ONE, 2015).
In all, about 310,000 compounds went through this assay and about 14,000 (4.5%) showed an effect of 50% or more. Effects have a minus sign here. This is one part of the list. Where a SMILES comes first, the peptide text is derived from it. [ ]: non-standard residue; d: D form. The star is where a group is joined. Tic = O=C(O)[C@@H]1Cc2ccccc2CN1; NHPr = CCCN*

The molecules below were run against human ether-à-go-go-related gene (hERG) potassium channel (human, UniProt Q12809) (assay: primary screen, population patch clamp on CHO cells stably expressing hERG).
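Further: peak tail current of the secondary pulse compared with the same well before compound.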

Chain of human ether-à-go-go-related gene (hERG) potassium channel (Q12809 whole entry, looked up): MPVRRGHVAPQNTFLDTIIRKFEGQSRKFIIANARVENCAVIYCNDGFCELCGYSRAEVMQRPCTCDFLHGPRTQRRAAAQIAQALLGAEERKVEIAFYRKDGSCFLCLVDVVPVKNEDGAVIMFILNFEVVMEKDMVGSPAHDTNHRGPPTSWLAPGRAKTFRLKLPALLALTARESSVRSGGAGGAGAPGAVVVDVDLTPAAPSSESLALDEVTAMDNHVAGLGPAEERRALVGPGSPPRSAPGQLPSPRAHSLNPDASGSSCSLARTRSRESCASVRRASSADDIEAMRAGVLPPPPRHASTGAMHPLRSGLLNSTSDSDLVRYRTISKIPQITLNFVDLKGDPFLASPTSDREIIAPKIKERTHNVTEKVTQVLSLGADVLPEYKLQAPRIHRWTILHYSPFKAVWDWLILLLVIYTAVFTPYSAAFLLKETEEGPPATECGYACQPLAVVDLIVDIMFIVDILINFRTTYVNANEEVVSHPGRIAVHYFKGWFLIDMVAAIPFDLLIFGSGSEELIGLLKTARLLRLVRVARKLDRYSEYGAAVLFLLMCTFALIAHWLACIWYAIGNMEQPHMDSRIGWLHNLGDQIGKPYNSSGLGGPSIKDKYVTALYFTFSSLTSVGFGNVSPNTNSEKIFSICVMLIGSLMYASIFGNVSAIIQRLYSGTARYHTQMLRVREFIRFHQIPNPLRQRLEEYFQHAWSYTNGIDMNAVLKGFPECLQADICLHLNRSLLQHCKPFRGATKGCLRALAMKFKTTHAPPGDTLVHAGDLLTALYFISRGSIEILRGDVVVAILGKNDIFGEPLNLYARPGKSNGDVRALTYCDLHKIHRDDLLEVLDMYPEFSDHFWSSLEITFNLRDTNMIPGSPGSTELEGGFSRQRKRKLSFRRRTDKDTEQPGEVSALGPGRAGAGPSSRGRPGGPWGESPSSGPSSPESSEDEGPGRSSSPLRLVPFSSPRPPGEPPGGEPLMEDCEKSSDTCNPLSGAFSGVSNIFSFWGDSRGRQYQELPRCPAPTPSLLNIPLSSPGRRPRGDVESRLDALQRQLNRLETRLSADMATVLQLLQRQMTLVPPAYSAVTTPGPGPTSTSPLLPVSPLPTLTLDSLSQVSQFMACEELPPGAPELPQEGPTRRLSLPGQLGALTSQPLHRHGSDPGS

SMILES | hERG current change (%, negative = inhibition) at 10uM [%]
COc1cccc(C(C(=O)NC2CCCC2)N(C(=O)c2csnn2)C2CC2)c1 (stereo not drawn) | -19.3
COc1ccc(CNC(=O)C2CCCN2C(=O)NCc2ccccc2)cc1 (stereo not drawn) | -22.2
CC1=C(C(=O)N(C)C)C(c2cccs2)NC(=O)N1 (stereo not drawn) | 4.82
CN1CCN(CC(=O)NC23CC4CC(CC(C4)C2)C3)CC1.Cl | 4.19
Cc1ccc(CNC(=O)COC(=O)COc2ccc(C#N)cc2)cc1 | -5.35
COc1ccc(Cl)cc1NC(=O)CN(C)C(=O)C1CC(=O)N(Cc2ccc(C)cc2)C1 (stereo not drawn) | -50
COc1cc(NC(=O)C2COc3ccccc3O2)c(OC)cc1Cl (stereo not drawn) | -11.1
NS(=O)(=O)c1ccc(O)c(N2C(=O)c3cccc4c(C(=O)O)ccc(c34)C2=O)c1 | 15.7
CCCCNC(=O)Nc1ccc(C2SCCS2)cc1 | 4.76
COc1cccc(C(=O)Nc2ccc(-n3nncc3C(C)(C)C)cc2)c1 | -60.5
CCN(CC)S(=O)(=O)c1ccc(NC(=O)c2cccs2)cc1 | -19.7
CC(C)N(C(=O)CN(C#N)c1nc(N(C)C)nc(N(C)C)n1)c1ccccc1 | 1.98
O=C(CN1N=C(c2ccc(Cl)cc2)CCC1=O)NCCN1CCc2ccccc2C1 | -51.4
COCCOC(=O)c1c(C)oc2ccc(OCC=C(C)C)cc12 | 2.18
OC(CN1CCCCC1)Cn1c2ccccc2c2ccccc21 (stereo not drawn) | 3.16
Cc1cccc(CN2CCCC(C(=O)Nc3ccccc3Oc3cccnc3)C2)c1 (stereo not drawn) | -43.9
Brc1ccc2[nH]c3c(c2c1)CCC3 | 15.9
CCc1ccc(C(=O)NC(=S)Nc2ccccc2N2CCOCC2)cc1 | 10.3
CCc1ccccc1NC(=O)c1cc2sccc2n1C | -5.61

SMILES | hERG current change (%, negative = inhibition) at 10uM [%]
COC(=O)c1ccccc1NC(=O)C1CC(=O)N(c2ccc(OC)cc2)C1 (stereo not drawn) | -26.2
CC(=O)Oc1ccc(/C=N/NC(=O)c2ccc(N(C)S(=O)(=O)c3ccccc3)cc2)cc1 | 12.8
CC(Cc1cccnc1)NC(=O)c1cc(COc2ccc(F)cc2F)on1 (stereo not drawn) | -10.4
O=C(Cn1cc([N+](=O)[O-])cn1)NCc1cc2ccccc2[nH]1 | -1.72
O=C(COC(=O)C1CC2CCCC(C1)C2=O)NNC(=O)c1ccccc1F (stereo not drawn) | 20.4
CN1CCN(NS(=O)(=O)c2ccc(Cl)s2)CC1 | 12.3
O=C(NCc1ccco1)C(c1ccccc1)N(C(=O)Cc1cccs1)c1ccccc1F (stereo not drawn) | 4.5
CC(C)c1ccc(C2(C)NC(=O)N(CC(=O)NCC3COc4ccccc4O3)C2=O)cc1 (stereo not drawn) | -24.2
Cl.O=C(CC(Nc1ccc(F)cc1)c1ccccc1)c1ccccc1 (stereo not drawn) | -2.3
O=C(Cn1cc([N+](=O)[O-])cn1)NCC1CCCO1 (stereo not drawn) | 14
Cc1cccc(N2CCN(C(=O)c3ccc(-n4cncn4)c([N+](=O)[O-])c3)CC2)c1C | -58.9
CCC(C)N(C(=O)CSc1ncnc2sccc12)C1CCS(=O)(=O)C1 (stereo not drawn) | -25.2
Cc1cccc(N(C(=O)CNC(=O)c2ccco2)C(C(=O)NC2CCCC2)c2cccnc2)c1C (stereo not drawn) | 15.1
O=C(O)c1cn(CCOc2ccccc2Cl)c2ccccc12 | 18.2
COc1ccc(N2C3=C(CC4=C2CC(C)(C)CC4=O)C(=O)CC(C)(C)C3)cc1 | 1.32
CCOC(=O)Nc1sc(C)c(C)c1C(N)=O | 9.44
Oc1ccc(Cl)cc1-c1cc(-c2ccccc2Cl)[nH]n1 | 3.63
CCc1ccccc1NC(=O)N[C@@H](C)C(=O)OC | 5.75
NC(=O)CC(NC(=O)Cc1ccc(Br)cc1)c1ccc(NCc2ccc(F)cc2)c([N+](=O)[O-])c1 (stereo not drawn) | 3.05

SMILES | hERG current change (%, negative = inhibition) at 10uM [%]
CCn1c(SC)nnc1-c1nnc(SC)n1CC | -7.09
COc1cc(C2(c3ccc(O)c(OC)c3)C(=O)N(C)c3ccc(Br)cc32)ccc1O | -52.6
O=c1oc2ccccc2n1Cc1cccc(F)c1 | 1.04
Cc1cc(C)nc(SCCC(=O)Nc2ccccc2Cl)n1 | 17.4
COC(=O)CN(c1ccc(C)c(Cl)c1)S(C)(=O)=O | 2.66
O=C(Nc1ccc([N+](=O)[O-])cn1)c1ccc2c(c1)OCO2 | 27.3
COc1ccc(C(=O)NCC(=O)N/N=C/c2cn[nH]c2-c2ccccc2)cc1 | -4.44
CC(C)Sc1nnc(NC(=O)CCc2ccccc2)s1 | 7.44
COc1cc(/C=C/c2cc(C(=O)O)c3ccccc3n2)cc(OC)c1O | 10.3
COc1cccc(NC(=O)C23CCC(C)(C(=O)O2)C3(C)C)c1 (stereo not drawn) | -5.46
O=C(O)CCc1ccc(-c2ccccc2)n1NC(=O)c1cccs1 | 26
O=C(CSc1nnc(-c2ccc3c(c2)OCO3)n1-c1ccccc1)c1ccc(Cl)cc1 | 13
CCCCN(CC)c1nc(-c2ccncc2)nc2ccccc12 | 1.06
COc1ccc(CCNC(=O)/C=C/c2cc(OC)c(OC)c(OC)c2)cc1OC | 15.3
COc1cc(CNC(=O)C2CC2)ccc1OCc1ccccc1 | -11.8
COc1cccc(/C=C2/NC(=O)NC2=O)c1OCC(=O)Nc1ccccc1 | 17.3
CCC(=O)Nc1nc2ccc3sc(C)nc3c2s1 | 3.22
CCCNC(=O)[C@@H]1CCCN1C(=O)[C@@H]1Cc2ccccc2CN1.Cl (H-[Tic]-Pro-NHPr) | 10.9
CCCn1c(=O)n(C)c(=O)c2c(SC(C)C(=O)NCC3CCCO3)nc(CC(C)C)nc21 (stereo not drawn) | 9.18
